# This is one part of the list.
# Columns and labels:
# Test in all cases: glycan array binding signal (z-score within array); higher = stronger binding
# Conditions in all cases: glycan notation: IUPAC condensed, linker removed
# Gal6S(b1-4)Glc6S = target: Gal6S(b1-4)Glc6S
# Method in brief: (§1)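 The Consortium for Functional Glycomics database supplied 3228 glycan arrays, of which those lacking an available protein sequence were dropped. The binding signal, a within-array Z-score, was averaged across arrays of the same protein sequence and across linkers. Negative scores can be read as non-binding.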
# Gal6S(b1-4)GlcNAc = target: Gal6S(b1-4)GlcNAc
# Method in brief: as §1
# Gal6S(b1-4)GlcNAc6S = target: Gal6S(b1-4)GlcNAc6S
# Method in brief: as §1
# GalNAc(a1-3)Gal = target: GalNAc(a1-3)Gal
# Method in brief: as §1
# GalNAc(a1-3)GalNAc = target: GalNAc(a1-3)GalNAc
# Method in brief: as §1
# [1] = target: GalNAc(a1-3)GalNAc(b1-3)Gal(a1-4)Gal(b1-4)Glc
# Method in brief: as §1
# [2] = target: GalNAc(a1-3)GalNAc(b1-3)Gal(a1-4)Gal(b1-4)GlcNAc
# Method in brief: as §1
# GalNAc(b1-3)Gal = target: GalNAc(b1-3)Gal
# Method in brief: as §1
# [3] = target: GalNAc(b1-3)Gal(a1-4)Gal(b1-4)GlcNAc
# Method in brief: as §1
# [4] = target: GalNAc(b1-3)Gal(a1-4)Gal(b1-4)GlcNAc(b1-3)Gal(b1-4)Glc
# Method in brief: as §1
# [5] = target: GalNAc(b1-3)Gal(a1-6)Gal(b1-4)Glc
# Method in brief: as §1
# GalNAc(b1-3)GalNAc = target: GalNAc(b1-3)GalNAc
# Method in brief: as §1
# GalNAc(b1-3)GlcNAc = target: GalNAc(b1-3)GlcNAc
# Method in brief: as §1
# GalNAc(b1-4)Gal(b1-4)Glc = target: GalNAc(b1-4)Gal(b1-4)Glc
# Method in brief: as §1
# GalNAc(b1-4)GlcNAc = target: GalNAc(b1-4)GlcNAc
# Method in brief: as §1
# [6] = target: GalNAc(b1-4)GlcNAc(b1-2)Man
# Method in brief: as §1
# [7] = target: GalNAc(b1-4)GlcNAc(b1-2)Man(a1-3)[GalNAc(b1-4)GlcNAc(b1-2)Man(a1-6)]Man(b1-4)GlcNAc(b1-4)GlcNAc
# Method in brief: as §1
# [8] = target: GalNAc(b1-4)GlcNAc(b1-3)GalNAc(b1-4)GlcNAc
# Method in brief: as §1
# GalNAc(b1-4)GlcNAc6S = target: GalNAc(b1-4)GlcNAc6S
# Method in brief: as §1
# GalNAc(b1-6)GalNAc = target: GalNAc(b1-6)GalNAc
# Method in brief: as §1
# GalNAc3S(b1-4)GlcNAc = target: GalNAc3S(b1-4)GlcNAc
# Method in brief: as §1
# GalNAc3S(b1-4)GlcNAc3S = target: GalNAc3S(b1-4)GlcNAc3S
# Method in brief: as §1
# [9] = target: GalNAc3S(b1-4)[Fuc(a1-3)]GlcNAc
# Method in brief: as §1
# GalNAc4S6S(b1-4)GlcNAc = target: GalNAc4S6S(b1-4)GlcNAc
# Method in brief: as §1
# GalNAc6S(b1-4)GlcNAc = target: GalNAc6S(b1-4)GlcNAc
# Method in brief: as §1
# Glc(a1-4)Glc = target: Glc(a1-4)Glc
# Method in brief: as §1
# [10] = target: Glc(a1-4)Glc(a1-4)Glc(a1-4)Glc
# Method in brief: as §1
# Glc(a1-6)Glc(a1-6)Glc = target: Glc(a1-6)Glc(a1-6)Glc
# Method in brief: as §1
# [11] = target: Glc(a1-6)Glc(a1-6)Glc(a1-6)Glc
# Method in brief: as §1
# Glc(b1-4)Glc = target: Glc(b1-4)Glc
# Method in brief: as §1
# Glc(b1-6)Glc = target: Glc(b1-6)Glc
# Method in brief: as §1
# GlcA(b1-3)Gal = target: GlcA(b1-3)Gal
# Method in brief: as §1
# GlcA(b1-3)GlcNAc = target: GlcA(b1-3)GlcNAc
# Method in brief: as §1
# GlcA(b1-6)Gal = target: GlcA(b1-6)Gal
# Method in brief: as §1
# [12] = target: GlcA3S(b1-3)Gal(b1-4)GlcNAc(b1-2)Man
# Method in brief: as §1
# [13] = target: GlcA3S(b1-3)Gal(b1-4)GlcNAc(b1-3)Gal(b1-4)Glc
# Method in brief: as §1
# [14] = target: GlcNAc(a1-3)Gal(b1-4)GlcNAc
# Method in brief: as §1
# [15] = target: GlcNAc(a1-4)Gal(b1-3)GlcNAc
# Method in brief: as §1
# [16] = target: GlcNAc(a1-4)Gal(b1-4)GalNAc
# Method in brief: as §1
# [17] = target: GlcNAc(a1-4)Gal(b1-4)GlcNAc
# Method in brief: as §1
# [18] = target: GlcNAc(a1-4)Gal(b1-4)GlcNAc(b1-3)Gal(b1-4)Glc
# Method in brief: as §1
# [19] = target: GlcNAc(a1-4)Gal(b1-4)GlcNAc(b1-3)Gal(b1-4)GlcNAc
# Method in brief: as §1
# [20] = target: GlcNAc(a1-4)Gal(b1-4)GlcNAc(b1-3)Gal(b1-4)GlcNAc(b1-3)Gal(b1-4)GlcNAc
# Method in brief: as §1
# [21] = target: GlcNAc(a1-4)Gal(b1-4)GlcNAc(b1-3)Gal(b1-4)[Fuc(a1-3)]GlcNAc(b1-3)Gal(b1-4)[Fuc(a1-3)]GlcNAc
# Method in brief: as §1
# [22] = target: GlcNAc(a1-6)Gal(b1-4)GlcNAc
# Method in brief: as §1
binder,measurement,setting,value
RBMC2 (Vibrio cholerae) (protein) KISVRSGFAIDAIGASASTLVGGTGGNLNAAVNVKDIKAIDLTWGKYYWGGYHLLALDFRMSNGSVISMGSKNYAYSKQTERFTVPAGSRIKGIKAWTAGWLLDGVQFELA,glycan array binding signal (z-score),Gal6S(b1-4)Glc6S,-0.283
same,glycan array binding signal (z-score),Gal6S(b1-4)GlcNAc,-0.426
same,glycan array binding signal (z-score),Gal6S(b1-4)GlcNAc6S,-0.293
same,glycan array binding signal (z-score),GalNAc(a1-3)Gal,-0.285
same,glycan array binding signal (z-score),GalNAc(a1-3)GalNAc,-0.314
same,glycan array binding signal (z-score),[1],-0.225
same,glycan array binding signal (z-score),[2],-0.401
same,glycan array binding signal (z-score),GalNAc(b1-3)Gal,-0.362
same,glycan array binding signal (z-score),[3],-0.197
same,glycan array binding signal (z-score),[4],-0.466
same,glycan array binding signal (z-score),[5],-0.427
same,glycan array binding signal (z-score),GalNAc(b1-3)GalNAc,-0.375
same,glycan array binding signal (z-score),GalNAc(b1-3)GlcNAc,-0.109
same,glycan array binding signal (z-score),GalNAc(b1-4)Gal(b1-4)Glc,-0.284
same,glycan array binding signal (z-score),GalNAc(b1-4)GlcNAc,-0.277
same,glycan array binding signal (z-score),[6],-0.406
same,glycan array binding signal (z-score),[7],1.47
same,glycan array binding signal (z-score),[8],-0.173
same,glycan array binding signal (z-score),GalNAc(b1-4)GlcNAc6S,-0.098
same,glycan array binding signal (z-score),GalNAc(b1-6)GalNAc,-0.377
same,glycan array binding signal (z-score),GalNAc3S(b1-4)GlcNAc,-0.423
same,glycan array binding signal (z-score),GalNAc3S(b1-4)GlcNAc3S,-0.32
same,glycan array binding signal (z-score),[9],-0.208
same,glycan array binding signal (z-score),GalNAc4S6S(b1-4)GlcNAc,-0.152
same,glycan array binding signal (z-score),GalNAc6S(b1-4)GlcNAc,-0.322
same,glycan array binding signal (z-score),Glc(a1-4)Glc,-0.286
same,glycan array binding signal (z-score),[10],-0.345
same,glycan array binding signal (z-score),Glc(a1-6)Glc(a1-6)Glc,-0.384
same,glycan array binding signal (z-score),[11],-0.018
same,glycan array binding signal (z-score),Glc(b1-4)Glc,-0.312
same,glycan array binding signal (z-score),Glc(b1-6)Glc,-0.449
same,glycan array binding signal (z-score),GlcA(b1-3)Gal,-0.199
same,glycan array binding signal (z-score),GlcA(b1-3)GlcNAc,0.027
same,glycan array binding signal (z-score),GlcA(b1-6)Gal,-0.221
same,glycan array binding signal (z-score),[12],-0.26
same,glycan array binding signal (z-score),[13],-0.205
same,glycan array binding signal (z-score),[14],-0.412
same,glycan array binding signal (z-score),[15],-0.372
same,glycan array binding signal (z-score),[16],-0.076
same,glycan array binding signal (z-score),[17],-0.071
same,glycan array binding signal (z-score),[18],-0.349
same,glycan array binding signal (z-score),[19],-0.281
same,glycan array binding signal (z-score),[20],-0.275
same,glycan array binding signal (z-score),[21],-0.211
same,glycan array binding signal (z-score),[22],-0.424

# Reference: the supplement of paper PMC8728848
